Results on seven sequences are retold here after article PMC6555819.

The list shows a part of the results.

The first assay deals with T1, THRa (Homo sapiens) (UniProt P10827).
T1 sequence: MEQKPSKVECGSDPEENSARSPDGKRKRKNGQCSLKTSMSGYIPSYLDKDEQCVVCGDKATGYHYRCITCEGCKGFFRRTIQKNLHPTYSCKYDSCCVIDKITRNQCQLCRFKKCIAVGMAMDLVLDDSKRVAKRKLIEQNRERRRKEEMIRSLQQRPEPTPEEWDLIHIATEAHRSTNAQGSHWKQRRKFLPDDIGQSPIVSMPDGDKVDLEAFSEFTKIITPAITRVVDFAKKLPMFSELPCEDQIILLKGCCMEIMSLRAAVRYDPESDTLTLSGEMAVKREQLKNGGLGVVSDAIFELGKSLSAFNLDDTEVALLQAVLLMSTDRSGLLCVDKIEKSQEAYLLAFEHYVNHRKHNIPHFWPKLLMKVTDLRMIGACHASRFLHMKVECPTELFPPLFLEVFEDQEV
As to conditions: 90 nM, no RXRa, PBS pH 7.4, 2% milk, 0.02% Triton X-100, 1 mM DTT, BSA, 0.4 mg/ml salmon testes DNA; double strand, one strand shown.
On to “GCTGGCAATGGCTGGACCACTCCAAGAACTGTGTGGGCGATTGACAGCGTAGAATGAAGG”, for which the binding signal (PBM z-score against 500 random probes) was -0.88.

Regarding “GCTCCCTGCCCAGTTCTGTGCAGGGTGTGCGTGTCTGCGATTGACAGCGTAGAATGAAGG”, the binding signal (PBM z-score against 500 random probes) is -0.95.

For “GCGCCTCTGGAATGTAAACTCCAGCCTGGCATGTATGCGATTGACAGCGTAGAATGAAGG”, the binding signal (PBM z-score against 500 random probes) was -0.46.

The next assay concerns the target T2, VDR (Homo sapiens) (UniProt P11473).
T2 sequence: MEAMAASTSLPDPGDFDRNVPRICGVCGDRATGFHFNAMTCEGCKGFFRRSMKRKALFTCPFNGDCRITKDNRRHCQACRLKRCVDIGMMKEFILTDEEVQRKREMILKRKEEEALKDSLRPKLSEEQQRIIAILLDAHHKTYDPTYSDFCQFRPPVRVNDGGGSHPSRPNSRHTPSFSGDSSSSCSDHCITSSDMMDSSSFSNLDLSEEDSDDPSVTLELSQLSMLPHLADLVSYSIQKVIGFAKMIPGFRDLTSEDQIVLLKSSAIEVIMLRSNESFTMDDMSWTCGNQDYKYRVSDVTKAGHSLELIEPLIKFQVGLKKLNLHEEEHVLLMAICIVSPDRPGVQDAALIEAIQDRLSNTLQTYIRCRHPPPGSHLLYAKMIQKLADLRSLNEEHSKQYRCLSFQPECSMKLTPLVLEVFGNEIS
Conditions: 270 nM, no RXRa, PBS pH 7.4, 2% milk, 0.02% Triton X-100, 1 mM DTT, BSA, 0.4 mg/ml salmon testes DNA; double strand, one strand shown.
For the sequence “GCGCTACTTGGGAGGCTGAGATGGTAGAATCACTTGGCGATTGACAGCGTAGAATGAAGG”, the binding signal (PBM z-score against 500 random probes) is -0.69.

Regarding “GCGTGCGAGGGAAGGAGCATGCTTCATTGATCCCATGCGATTGACAGCGTAGAATGAAGG”, the binding signal (PBM z-score against 500 random probes) was -1.05.

“GCTCTCTGGTACCAGTGAAGAAGACGTCCAGGTGGCGCGATTGACAGCGTAGAATGAAGG” gave a binding signal (PBM z-score against 500 random probes) of -0.76.

Take “GCTGGGCACATGAGGGATGGGAGTTGATCTCTGTGGGCGATTGACAGCGTAGAATGAAGG”: the binding signal (PBM z-score against 500 random probes) worked out at 0.06.
